# From the supplement of paper PMC6135742
# Where a name gives a salt, the structure may show the parent alone. ± gives the standard deviation of the averaged measurements. Over roughly 2,600 compounds, “MBP+ mature oligodendrocyte number relative to DMSO vehicle control” has its median near -0.34; the highest 2% begin near 13. Some of the results follow.
# Test system: jimpy (Plp1 jimpy) mouse iPSC-derived oligodendrocyte progenitor cells
# Assay: MBP+ mature oligodendrocyte number relative to DMSO vehicle control (SDs above negative control mean); higher = more surviving jimpy oligodendrocytes (rescue)
# Details: 10 µM; 3 days
# 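Note: 10 µM single dose with 3-day oligodendrocyte differentiation.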
row,Compound,MBP+ mature oligodendrocyte number
1,O=C(O)COCCN1CCN(C(c2ccccc2)c2ccc(Cl)cc2)CC1 (stereo not drawn) [Cetirizine DiHCl],-0.938
2,O=C(O)COCCN1CCN(C(c2ccccc2)c2ccc(Cl)cc2)CC1 (stereo not drawn) [Cetirizine dihydrochloride],-0.0207
3,N[C@@H]1CONC1=O [D-Cycloserine],-0.119
4,Cn1cc(-c2cnn3c(N)c(Br)c([C@@H]4CCCNC4)nc23)cn1,< -6.01
5,OCC1OC(n2cnc3c(NC4CCCCC4)ncnc32)C(O)C1O (stereo not drawn) [N6-Cyclohexyladenosine],-1.17
6,N[C@@H](Cc1c[nH]c2ccc(O)cc12)C(=O)O [5-Hydroxy-L-tryptophan],-1.75
7,N[C@@H](Cc1c[nH]c2ccc(O)cc12)C(=O)O [5-hydroxytryptophan (5-HTP)],-0.388
8,CC(=O)Nc1nc2c(Oc3cc(-c4ccc(C(F)(F)F)cc4)ncn3)cccc2s1,4.88
9,CC(C)n1nc(-c2ccc3oc(N)nc3c2)c2c(N)ncnc21,< -6.01
10,N=C(N)Nc1ccc(C(=O)Oc2ccc3cc(C(=N)N)ccc3c2)cc1 [Nafamostat Mesylate],-3.03
11,COc1cc2nc(N(C)CCCNC(=O)C3CCCO3)nc(N)c2cc1OC (stereo not drawn) [Alfuzosin hydrochloride],-0.394
12,COc1cc2nc(N(C)CCCNC(=O)C3CCCO3)nc(N)c2cc1OC (stereo not drawn) [Alfuzosin HCl],3.69
13,Clc1ccc(Cn2c(CN3CCCC3)nc3ccccc32)cc1 [Clemizole hydrochloride],5.42
14,CCCCc1nc2cc(/C=C/C(=O)NO)ccc2n1CCN(CC)CC [Pracinostat (SB939)],< -5.15
15,O=C(O)/C=C/c1ccc(O)c(O)c1 [Caffeic Acid],1.07 ± 0.63
16,CC1(C)CC(=O)c2c(C(F)(F)F)nn(-c3ccc(C(N)=O)c(N[C@H]4CC[C@H](O)CC4)c3)c2C1,< -6.01
17,N#CSc1cc(SC#N)c(N)nc1N,-6.27
18,CC(=O)Oc1ccccc1C(=O)O [Acetylsalicylic acid],-0.865
19,CC(=O)Oc1ccccc1C(=O)O [Aspirin],3.36

row,Compound,MBP+ mature oligodendrocyte number
1,"O=C(O)[C@H]1NCCC[C@H]1C(=O)O (racemic) [(±)-cis-Piperidine-2,3-dicarboxylic acid]",1
2,CNS(=O)(=O)CCc1ccc2[nH]cc(C3CCN(C)CC3)c2c1 [Naratriptan hydrochloride],1.44
3,CNS(=O)(=O)CCc1ccc2[nH]cc(C3CCN(C)CC3)c2c1 [Naratriptan],3.94
4,COc1ccc2ccc(=O)oc2c1CC=C(C)C [Osthole],0.0035
5,N=C(N)NS(=O)(=O)c1ccc(N)cc1 [Sulfaguanidine],4.63
6,C[C@]12CC[C@H](O)CC1=CC[C@@H]1[C@@H]2CC[C@]2(C)C(n3cnc4ccccc43)=CC[C@@H]12 [Galeterone],16.8
7,CC1=C(/C=C/C(C)=C/C=C/C(C)=C/C(=O)O)C(C)(C)CCC1 [Tretinoin],1.87
8,CC1=C(/C=C/C(C)=C/C=C/C(C)=C/C(=O)O)C(C)(C)CCC1 [Retinoic acid],1.11
9,"CC(O)C(O)[C@H]1CNc2nc(N)[nH]c(=O)c2N1 (stereo partly drawn) [(6R)-5,6,7,8-Tetrahydro-L-biopterin hydrochloride]",-1.5
10,NC(=O)C1=CN(C2OC(COP(=O)(O)OP(=O)(O)OC[C@H]3O[C@@H](n4cnc5c(N)ncnc54)C(OP(=O)(O)O)[C@H]3O)C(O)C2O)C=CC1 (stereo partly drawn) [NADPH tetrasodium],0.186
11,C#Cc1cccc(Nc2ncnc3cc4c(cc23)OCCOCCOCCO4)c1 [Icotinib],-3.15
12,Cc1ccc(NCCCc2ccccc2)c(N)c1,< -6.35
13,CCc1c(C)[nH]c2c1C(=O)C(CN1CCOCC1)CC2 (stereo not drawn) [Molindone hydrochloride],-0.206
14,c1ccc(-c2[nH]ncc2-c2ccnc3ccccc23)nc1,-2.12
15,CC1=C(C(=O)O)N2C(=O)[C@@H](NC(=O)[C@H](N)C3=CCC=CC3)[C@H]2SC1 [Cephradine],-1.26
16,CC1(C)[C@H](C(=O)O)N2C(=O)C[C@H]2S1(=O)=O [Sulbactam sodium],3.47
17,CC1(C)[C@H](C(=O)O)N2C(=O)C[C@H]2S1(=O)=O [Sulbactam],1.96
18,Cc1ncc(CO)c(CO)c1O [Pyridoxine HCl],1.85
19,CN1CCc2cc(Cl)c(O)cc2[C@@H](c2ccccc2)C1,1.39
